Data taken from patent US20210355220A1 (TIKCRO TECHNOLOGIES, published 2021).

Key:
[1] = target: T1, recombinant human CD86-mFC (human; mouse, UniProt P42081 24-247); test: flow cytometry on HEK293-hCTLA-4 cells incubated with 1 ug/ml antibody, CD86 in serial dilution, bound antibody detected with anti-human secondary; competitor: Ab55h
T1 construct: extracellular domain; also called B7.2; not shown: mouse IgG2b Fc segment
T1 sequence (looked up): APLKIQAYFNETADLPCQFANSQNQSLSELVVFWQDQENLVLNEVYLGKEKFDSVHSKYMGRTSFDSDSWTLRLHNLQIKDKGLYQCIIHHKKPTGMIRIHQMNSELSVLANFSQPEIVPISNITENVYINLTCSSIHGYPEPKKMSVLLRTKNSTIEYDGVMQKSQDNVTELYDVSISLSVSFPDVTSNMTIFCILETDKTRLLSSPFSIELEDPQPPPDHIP

[2] = target: T2, recombinant human CD80-mFC (human; mouse, UniProt P33681 35-242); test: flow cytometry on HEK293-hCTLA-4 cells incubated with 1 ug/ml antibody, CD80 in serial dilution, bound antibody detected with anti-human secondary; competitor: Ab55h
T2 construct: extracellular domain; also called B7.1; not shown: mouse IgG2b Fc segment
T2 sequence (looked up): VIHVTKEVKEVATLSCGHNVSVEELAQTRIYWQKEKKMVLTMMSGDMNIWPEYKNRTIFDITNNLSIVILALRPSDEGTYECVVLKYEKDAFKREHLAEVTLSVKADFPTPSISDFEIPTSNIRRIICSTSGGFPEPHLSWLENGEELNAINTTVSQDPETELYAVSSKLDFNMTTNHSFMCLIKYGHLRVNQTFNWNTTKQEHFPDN

B1: human CTLA-4 expressed on cells (receptor)
chain: not shown
notes: whole, on cells; On stably or transiently transfected HEK293 cells; also called hCTLA-4; HEK293-hCTLA-4 cells
Q: Does B1 bind [1]?
A: Result: binds

Q: Does B1 bind [2]?
A: Result: binds
